Experimental data taken from article PMC5537225, “Therapeutic efficacy of a respiratory syncytial virus fusion inhibitor” (Nature Communications, 2017).

Tested on: wild-type rgRSV224
Details: A549 cells, time-lapse imaging 48 h

SMILES: CS(=O)(=O)CCCn1c(Cn2c(=O)n(CC(F)(F)F)c3ccncc32)cc2cc(Cl)ccc21 [JNJ-53718678]
- concentration giving statistically significant inhibition of the infection rate, wild-type RSV: ≥ 1 nM
